Some of the results follow.

The experiment deals with T1, OsWOX13 (Oryza sativa, UniProt Q5QMM3 1-267).
T1 sequence: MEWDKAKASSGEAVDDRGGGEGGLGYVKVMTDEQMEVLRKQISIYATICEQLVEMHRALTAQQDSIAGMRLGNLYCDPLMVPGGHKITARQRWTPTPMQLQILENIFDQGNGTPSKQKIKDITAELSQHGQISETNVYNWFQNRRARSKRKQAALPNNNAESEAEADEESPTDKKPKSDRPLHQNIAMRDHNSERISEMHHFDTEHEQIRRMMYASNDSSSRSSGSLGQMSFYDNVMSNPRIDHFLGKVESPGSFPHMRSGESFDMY
In words: protein-binding microarray (RPBM); PBS, 2% BSA, 51.3 ng/ul salmon testes DNA, 50 uM zinc acetate, 200 nM TF, 25 C, 1 h; high values mean tight binding. The following applies: protein: recombinant; tags: N-terminal polyhistidine and DsRed monomer fusion (pET32a); label: CyDye5-dUTP incorporated in the synthesized complementary strand; 3' TTTTT single-stranded linker to array surface; dsDNA, one strand shown. The essentials:
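Per-feature fluorescence intensity (arbitrary units), read on an Axon 4000B scanner, is the binding signal. Transcription factors carrying an N-terminal polyhistidine tag and DsRed fusion were expressed in E. coli BL21-CodonPlus and purified on Ni–NTA. A custom Agilent array, made double-stranded by primer extension with Cy5-dUTP and blocked with 2% BSA, was incubated with 200 nM protein in PBS, 2% BSA, salmon testes DNA and 50 µM zinc acetate at 25 °C for 1 h and then washed.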
As for “ATTTGATTGGACATCATCGAAATACTGAAATTTCCAAAATCGGAGTCACCTAGTGCAG”, the binding signal is 36000 fluorescence intensity (a.u.). The value for “CAATTTATTGCCGGTTAATTAACCGCCGGAATTGCATAAACGGAGTCACCTAGTGCAG” was 11100 fluorescence intensity (a.u.). With “GGTCCCTAAATTTTACACTGAATCTAATTTTCGTCCTTAACGGAGTCACCTAGTGCAG”, the binding signal was 3190 fluorescence intensity (a.u.).

On to “GTGGGATCAAACATTAATTAATTATATAGTACATGTTTATCGGAGTCACCTAGTGCAG”, for which the binding signal was 11700 fluorescence intensity (a.u.). Consider “TAAATGATCTGTGATAATTATTTGAAGGTACGTACGAACGCGGAGTCACCTAGTGCAG”, for which the binding signal was 9760 fluorescence intensity (a.u.). For “TGGACTGGATTGAATCCGGCGTAACCAAATAAGGCCTAAACGGAGTCACCTAGTGCAG”, the binding signal was 3270 fluorescence intensity (a.u.).

Take “TCTTGTTGATTAGTACTCCCTCCGTTTCGAAATGCTTGACCGGAGTCACCTAGTGCAG”: the binding signal was 19000 fluorescence intensity (a.u.).

As to “TATAGATATATAGATTGATGAGTACGTTAATGTCAACGAGCGGAGTCACCTAGTGCAG”, the binding signal is 43300 fluorescence intensity (a.u.). Take “AGGGGTTACAGCTAATTAACTCATTAAACACGAAGACAAACGGAGTCACCTAGTGCAG”: the binding signal is 12600 fluorescence intensity (a.u.).

Turning to “GGTATTACTGACTGGATTACCATGTGTGCGTCACATCGGACGGAGTCACCTAGTGCAG”, the binding signal was 6490 fluorescence intensity (a.u.). The value for “TTGCTGATTGAAGCTGATACTGTCGTGAAATGAACCATGTCGGAGTCACCTAGTGCAG” was 38200 fluorescence intensity (a.u.); that for “TAAGTAATTATTAATTCTTTTCCTATCATTTGATTTATTGCGGAGTCACCTAGTGCAG” was 11700 fluorescence intensity (a.u.); that for “ATGCTTAATCAATCAAGTGGTTGGTACTGCGTGCAAGATGCGGAGTCACCTAGTGCAG” was 21800 fluorescence intensity (a.u.). The same measure for “GATGTGATAGGAACTTATTAGTCCCATCTAAACAGGTTCTCGGAGTCACCTAGTGCAG”: 9050 fluorescence intensity (a.u.); for “GTAGATTGAGCAAGCAAATAAAGAAGGAGATAACATAAGGCGGAGTCACCTAGTGCAG”: 13800 fluorescence intensity (a.u.); for “CTTCACATGGAATTCCAATTACCACTAACTGAAAACGACACGGAGTCACCTAGTGCAG”: 5930 fluorescence intensity (a.u.). As for “TATAGATTAGAGAATTAGTGGAGAACAAAATATAATAAAGCGGAGTCACCTAGTGCAG”, the binding signal was 5050 fluorescence intensity (a.u.). On to “TTAATTGATTGATGCATGGGCCTCTGTTCCAGCCCATACACGGAGTCACCTAGTGCAG”, for which the binding signal was 51600 fluorescence intensity (a.u.). With “ACAAATTGCTGTTACCGGCATCTTCTCAAATCCATCCAGTCGGAGTCACCTAGTGCAG”, the binding signal was 17200 fluorescence intensity (a.u.). For the sequence “GATATGATAGAATACTCCAAATTCATTCGATATGATAGAGCGGAGTCACCTAGTGCAG”, the binding signal is 6440 fluorescence intensity (a.u.).

Regarding “TACGGCGGTGATAGACGACTTTGGGGCATTGGGCGGTTAACGGAGTCACCTAGTGCAG”, the binding signal is 3350 fluorescence intensity (a.u.).

Consider “GTGATGAAAGATTGGGATTCGTTGCGAGTTTCAGCTGCCTCGGAGTCACCTAGTGCAG”, for which the binding signal is 7690 fluorescence intensity (a.u.).

Consider “GCGATTAAATGTACAGTAAATAGGGATGAACAATATACGACGGAGTCACCTAGTGCAG”, for which the binding signal is 3570 fluorescence intensity (a.u.).

Consider “TACCTGATTTAGGCCTCACTTAGAGCCTTGTACAGGGCCTCGGAGTCACCTAGTGCAG”, for which the binding signal was 5100 fluorescence intensity (a.u.). “ACGTTGATTAGTTAGTACTAACCTACTCCTACGTGTTAACCGGAGTCACCTAGTGCAG”: the binding signal was 30400 fluorescence intensity (a.u.). The value for “ACAGATTGAGGTTCGTCCTCGATGGGAAAATAGAGCACCCCGGAGTCACCTAGTGCAG” was 15500 fluorescence intensity (a.u.); that for “TAACCGATCAGTTGATTAATCCGGCTCTCTCGCCCGCACGCGGAGTCACCTAGTGCAG” was 4630 fluorescence intensity (a.u.). The same measure for “TGAACCTAATTAATCCATGATTATCCTATGTGATGCTACACGGAGTCACCTAGTGCAG”: 31900 fluorescence intensity (a.u.). For “GTCTAATTCTGAAATAATTTTATATAGGGTTAATTTACAACGGAGTCACCTAGTGCAG”, the binding signal is 6400 fluorescence intensity (a.u.). The value for “GCCTAAGATAATTGATAAGAGTGCTTAAAGTGTACAACCGCGGAGTCACCTAGTGCAG” was 37500 fluorescence intensity (a.u.).

Regarding “AAAATAACATCAATCTGAACGGGCTTTCAATTTAAATGGACGGAGTCACCTAGTGCAG”, the binding signal was 4700 fluorescence intensity (a.u.).

For “TTAAACCTAATTCCAATCAGAAACCAGCAGTCACCACAAACGGAGTCACCTAGTGCAG”, the binding signal is 19600 fluorescence intensity (a.u.).

In the case of “TATGACATTTTAACTGATCTGAAATTTTGCAATGTAGCAGCGGAGTCACCTAGTGCAG”, the binding signal is 7030 fluorescence intensity (a.u.). With “CAAAAGAACAATTATTGATCAACTAATGTACACGTCCCAGCGGAGTCACCTAGTGCAG”, the binding signal was 13900 fluorescence intensity (a.u.). The same measure for “GAGCTGTCATAAATCATAATCATGAACATACAAGCATAATCGGAGTCACCTAGTGCAG”: 4020 fluorescence intensity (a.u.); for “CTCTCTTTAATTAGCTAGATTGATGTATGTGGTTACTTACCGGAGTCACCTAGTGCAG”: 38500 fluorescence intensity (a.u.).

On to “TGTCATGGAAAGAGAAAATTGATTTAGAATGTAGACCATTCGGAGTCACCTAGTGCAG”, for which the binding signal was 3750 fluorescence intensity (a.u.). On to “CGCCTTAATTACTTCGATTTCGAACAGAATGGGAATACAGCGGAGTCACCTAGTGCAG”, for which the binding signal is 37300 fluorescence intensity (a.u.). With “GCTTTCCATTCTGATTTTGTCCTTTTCACCTACCAAAACGCGGAGTCACCTAGTGCAG”, the binding signal is 4010 fluorescence intensity (a.u.). On to “TCTCGATCCTTTTATTAATTAGTTTTCGAGTTTTCGTCGACGGAGTCACCTAGTGCAG”, for which the binding signal was 3850 fluorescence intensity (a.u.).

Turning to “AATACCAACTGTTTGATTTGAATCGTGTGATGTACTTCACCGGAGTCACCTAGTGCAG”, the binding signal was 3250 fluorescence intensity (a.u.). Consider “TTTTATGCTAACTTAAATTGATTAGACTTTCTAATTACAGCGGAGTCACCTAGTGCAG”, for which the binding signal is 40300 fluorescence intensity (a.u.).
